# From publication PMC4336329 (PLoS ONE, 2015)
# About 2,200 (0.71%) of roughly 310,000 compounds showed an effect of 50% or more. Effects have a minus sign here. The list shows a part of the results.
# Target: human ether-à-go-go-related gene (hERG) potassium channel (human, UniProt Q12809)
# Assay: primary screen, population patch clamp on CHO cells stably expressing hERG
# Sequence of human ether-à-go-go-related gene (hERG) potassium channel (Q12809 whole entry, looked up): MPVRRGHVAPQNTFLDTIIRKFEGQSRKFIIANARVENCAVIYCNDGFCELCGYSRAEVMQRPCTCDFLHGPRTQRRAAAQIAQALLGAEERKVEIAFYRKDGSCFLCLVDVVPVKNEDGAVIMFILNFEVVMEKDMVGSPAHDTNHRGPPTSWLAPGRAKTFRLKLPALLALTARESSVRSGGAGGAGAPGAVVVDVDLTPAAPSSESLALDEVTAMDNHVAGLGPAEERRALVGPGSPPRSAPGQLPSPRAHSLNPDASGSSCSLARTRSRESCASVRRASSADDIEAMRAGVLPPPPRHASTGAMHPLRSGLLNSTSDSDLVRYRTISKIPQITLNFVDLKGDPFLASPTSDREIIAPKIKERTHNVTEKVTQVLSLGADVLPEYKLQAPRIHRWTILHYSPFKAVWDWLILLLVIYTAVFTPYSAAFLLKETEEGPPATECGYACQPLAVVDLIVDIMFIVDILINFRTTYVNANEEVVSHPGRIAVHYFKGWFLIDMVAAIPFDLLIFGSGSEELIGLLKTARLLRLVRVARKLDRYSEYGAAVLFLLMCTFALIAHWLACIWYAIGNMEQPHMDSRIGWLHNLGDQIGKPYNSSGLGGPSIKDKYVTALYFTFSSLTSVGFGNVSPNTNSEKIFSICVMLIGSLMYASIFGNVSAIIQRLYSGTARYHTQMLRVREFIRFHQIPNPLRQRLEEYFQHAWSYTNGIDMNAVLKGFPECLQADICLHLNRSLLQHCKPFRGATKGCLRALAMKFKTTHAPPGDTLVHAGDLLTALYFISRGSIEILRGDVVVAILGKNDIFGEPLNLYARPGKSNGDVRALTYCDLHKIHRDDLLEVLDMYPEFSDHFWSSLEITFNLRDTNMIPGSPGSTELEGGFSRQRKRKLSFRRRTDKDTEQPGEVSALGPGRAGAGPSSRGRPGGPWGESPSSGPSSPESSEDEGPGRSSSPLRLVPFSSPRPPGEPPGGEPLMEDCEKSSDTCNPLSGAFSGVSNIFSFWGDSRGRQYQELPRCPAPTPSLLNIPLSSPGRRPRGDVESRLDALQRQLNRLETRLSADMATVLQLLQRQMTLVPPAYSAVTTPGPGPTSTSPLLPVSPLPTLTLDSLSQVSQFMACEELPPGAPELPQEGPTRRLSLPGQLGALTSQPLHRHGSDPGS
row,SMILES,"hERG current change (%, negative = inhibition) at 1uM [%]"
1,COc1ccccc1NC(=O)N(CCN1CCOCC1)Cc1cc2cc(C)cc(C)c2[nH]c1=O,-1.04
2,Cc1ccc(F)cc1NC(=O)C12CC3CC(C1)CC(n1cnc([N+](=O)[O-])n1)(C3)C2,-32.3
3,O=C(CSc1nc(Nc2ccccc2)nc(N2CCOCC2)n1)Nc1cccc([N+](=O)[O-])c1,13.6
4,COc1ccc(NS(=O)(=O)c2cccc(Cl)c2)cc1S(=O)(=O)N1CCCCC1,8.98
5,CCOC(=O)C1=C(C)Nc2ncnn2C1c1ccc2c(c1)OCO2 (stereo not shown),2.68
6,O=C(O)CCCCCCC1C(=O)NC(=O)N1CCC(O)C1CCCCC1 (stereo not shown),10
7,CCOC(=O)C1CCN(C(=O)Nc2ccc(Cl)cc2)CC1,2.69
8,CCN(CC)CCNc1cc(C)c(C#N)c2nc3ccccc3n12,1.71
9,C[n+]1ccn(CC(=O)c2ccc(Cl)cc2)c1.[Br-],1.55
10,CN(CC(=O)Nc1ccc(S(=O)(=O)N2CCCC2)cc1)Cc1ccc(Cl)c(Cl)c1,9.27
11,CC1Cc2cc(S(=O)(=O)CCC(=O)N3CCN(c4ccccc4)CC3)ccc2N1C(=O)C1CC1 (stereo not shown),6.42
12,COC(=O)c1cc(=O)c2c(C)nc(C(Cl)(Cl)Cl)nc2[nH]1,4.24
13,Cc1cc(C)c(S(=O)(=O)N2CCCOC2CNC(=O)C(=O)NCc2ccncc2)c(C)c1 (stereo not shown),10.7
14,Cn1cnc2cc(NCc3ccccc3O)ccc21,12.7
15,CC1=NN(CCc2ccccn2)C(=O)CC1,13.8
16,COC(=O)C1=C(c2cc3ccccc3s2)C[C@@H]2CC[C@H]1N2C(=O)NCc1ccco1,3.26
17,O=C(CN1CCN(c2ccc(O)cc2)CC1)Nc1ccc(-c2ccccc2)cc1,7.08
18,CCc1ccc(N(C(=O)CCC(=O)Nc2cc(C)on2)C(C(=O)NC(C)(C)C)c2ccc(OC)cc2)cc1 (stereo not shown),17.8
19,Cc1ccccc1NC(=O)CN1C(=O)NC2(CCc3ccccc32)C1=O (stereo not shown),16.4
20,Cc1cc(C)n(CC(=O)N2CCc3ccccc32)c(=O)c1C#N,14.4
21,C=CCNC(=O)/C(C#N)=C/c1c(N2CCN(c3cccc(Cl)c3)CC2)nc2c(C)cccn2c1=O,11.2
22,CC(=O)Nc1ccc(/C=C2\Sc3ccccc3C2=O)cc1,9.42

row,SMILES,"hERG current change (%, negative = inhibition) at 1uM [%]"
1,C=CCN1C(=O)C(CC(=O)O)SC1=Nc1ccc(C(=O)O)cc1 (stereo not shown),10.6
2,CC(=O)Cc1cc(=O)c2c(C)cc(O)c(C3OC(CO)C(O)C(O)C3O)c2o1 (stereo not shown),9.83
3,O=C(CN1CCN(c2ccccc2O)CC1)NC(c1ccccc1)c1ccccc1,-5.69
4,COc1ccc(NC(=O)CNS(=O)(=O)c2ccc3nc(C)sc3c2)c(OC)c1,1.77
5,Cc1ccccc1CNC(=O)Cn1ccc2cc(S(=O)(=O)N3CCCCCC3)ccc21,16.6
6,N#Cc1ccc(-c2c(-c3ccccc3)ncc3cc(F)ccc23)cc1,13.3
7,N#Cc1cccc2cccc(S(=O)(=O)N3CCOCC3)c12,17
8,O=C(c1ccc(S(=O)(=O)N2CCCCC2)cc1)N1CCN(CCN2C(=O)c3cccc4cccc(c34)C2=O)CC1,12.3
9,O=C(O)CSC(NC(=O)c1cccnc1)(C(F)(F)F)C(F)(F)F,4.18
10,S=C(Nc1ccc(Br)cc1)Nc1ccc2c(c1)OCCO2,9.23
11,CC(C)Cc1nc2n[nH]c(N)c2c2c1CCCC2,9.01
12,CCCc1cc(O)c2c(C)cc(=O)oc2c1,9.99
13,O=C(NCCCn1cccn1)c1cc(COc2ccc(F)cc2Cl)on1,-6.71
14,CC1CCCCN1C(=O)CN1CCC(c2nc3ccc(Cl)cc3[nH]2)CC1 (stereo not shown),1.51
15,Cn1c(COc2ccc3ccccc3c2)nnc1SCC(=O)O,5.3
16,Cc1ccc([C@@H]2C3COCC=C3C(C#N)=C(N)C2(C#N)C#N)o1 (stereo partly shown),1.2
17,CCCCCC(=O)Nc1cccc(C2=NOC3(C2)C[C@H](C(N)=O)N(C(=O)c2ccccc2C(=O)c2ccccc2)C3)c1 (stereo partly shown),2.78
18,CCCc1cc(-c2ccc(O)c(OCC)c2)c(C#N)c(N)n1,9.23
19,CCc1cccc(C)c1NC(=O)COC(=O)c1cc([N+](=O)[O-])ccc1N1CCOCC1,11.2
20,CC1(C)CC(C)(c2ccc(O)cc2O)N(c2cccc(Cl)c2)C(=S)N1 (stereo not shown),7.77
21,CCc1nc2ccccc2n1CC(=O)N1CCN(Cc2ccccc2)CC1,-43.8
22,O=C(O)C1CSC(c2ccco2)N1 (stereo not shown),11.2

row,SMILES,"hERG current change (%, negative = inhibition) at 1uM [%]"
1,COc1ccc(OCc2nnnn2-c2ccccc2)cc1,2.93
2,COc1ccc(CNC(=O)c2csc3c2CCCC3)cc1,4.44
3,O=C(CSc1nnc(Cn2c(=O)sc3ccccc32)n1-c1ccccc1)N1CCOCC1,2.83
4,O=C(NN=C1CCN(Cc2ccccc2)CC1)c1cc(Br)ccc1O,-0.126
5,COc1ccccc1NC(=O)N(Cc1cccs1)Cc1cc2cc3c(cc2[nH]c1=O)OCO3,-3.61
6,CCOC(=O)N1CCC(NC(=O)CC2C(=O)NCCN2Cc2ccccc2F)CC1 (stereo not shown),8.91
7,CCOC(=O)c1cnc(-n2[nH]c(C)cc2=O)[nH]c1=O,11.7
8,CN(C)C(=O)N1CCCC(C(=O)NCc2cccs2)C1 (stereo not shown),3.5
9,Cc1ccc(C)c(N/N=C2\CCCNC2=O)c1,0.669
10,Cc1ccc(N(CC(=O)NC(C)(C)C)C(=O)CS(=O)CC(=O)Nc2ccc(F)cc2)cc1 (stereo not shown),11.6
11,Cc1c(C(=O)N2CC(C)OC(C)C2)[nH]c2ccc(Br)cc12 (stereo not shown),12.4
12,O=C1CCc2cc(S(=O)(=O)Nc3ccccc3F)cc3c2N1CCC3,0.58
13,CCCC(C)NS(=O)(=O)c1ccccc1 (stereo not shown),-16
14,Cc1ccc(-c2ccc(=O)n(Cc3c(F)cccc3Cl)n2)cc1,7.8
15,COc1ccc2[nH]c3c(c2c1)CCN1C(=O)N([C@@H](C)C(=O)NC2CCCCC2C)C(=O)[C@]31C (stereo partly shown),7.36
16,COc1ccc(-c2[nH]ncc2CN2CCC(N3CCSCC3)CC2)c(F)c1,12.1
17,CCOC(=O)c1sc(=NC(=O)c2ccccc2Br)n(C)c1C,1.94
18,CC1(C)Cc2c(sc3c2C(=O)N(c2ccccc2)C2=NCCCN23)CO1,8.24
19,O=C(Nc1ccc2oc(-c3cccnc3)nc2c1)c1cc2ccccc2o1,9.02
20,CN(C)/C=C1\C(=O)NN=C1C(F)(F)F,2.88
21,Cc1cccc(NC(=O)C(C)SCc2nc3sc4c(c3c(=O)[nH]2)CCCC4)n1 (stereo not shown),3.61
22,COc1ccc(OCc2nnc(SCC(=O)Nc3ccccc3C#N)o2)cc1,3.87

row,SMILES,"hERG current change (%, negative = inhibition) at 1uM [%]"
1,Cc1ccc(S(=O)(=O)n2nccc2-c2c(-c3ccc(Cl)cc3)noc2C)cc1,10.5
2,CCN(CC)c1ccc(S(=O)(=O)N2CCOCC2)cc1NC(=O)CN1C(=O)NC2(CCCC2)C1=O,-7.8
3,Cc1cccc(OCCCCCn2ccnc2)c1,-3.37
4,Cc1[nH]nc2c1C(c1ccccn1)N(c1ccc(Br)cc1)C2=O (stereo not shown),-7.96
5,CCOc1ccc(-c2nc3n(c(=O)c2C#N)CCS3)cc1,19.2
6,COc1ccc(C(=O)NC(=S)NC(C)C)cc1Br,13
7,NC(=O)C1CCN(CC(O)CSc2ccc(F)cc2)CC1 (stereo not shown),16.1
8,C#CCOCCOCCOCCNc1nc(N2CCN(C(=O)[C@H]([C@@H](C)CC)n3cc([C@@H](N)CC(C)C)nn3)CC2)nc(N2CCN(C(=O)[C@H](Cc3ccc(O)cc3)n3cc([C@@H](N)C(C)CC)nn3)CC2)n1.Cl (stereo partly shown),2.59
9,O=C(OCc1ccc(Br)cc1)c1ccncc1,9.81
10,O=C(O)c1cccc(NC(=S)N/N=C/c2c[nH]c3ccccc23)c1,13.5
11,CS(=O)(=O)NCCCCCCNS(C)(=O)=O,14.7
12,COc1ccc(OCC(N)=O)cc1,9.82
13,COC(=O)CCC(=O)Nc1sc(C)c(C)c1C(N)=O,17.7
14,CCCCNC(=O)OC(C)CNC(=O)OC (stereo not shown),2.34
15,O=C(NCC1CCCO1)c1ccc(F)c2ccccc12 (stereo not shown),14.6
16,CCN1C(=O)C(Cc2nc3ccccc3c(=O)n2C)c2ccccc21 (stereo not shown),3.46
17,COc1ccc(OCC(=O)Nc2ccccc2N2CCCCC2)cc1,12.2
18,Br.Cc1ccc2nc(-c3ccccc3)cn2c1,15.4
19,CC(C)c1ccc(NC(=O)COC(=O)c2ccc(CN3CCCC3=O)cc2)cc1,7.5
20,Cc1oc(-c2ccccc2Cl)nc1CN1CCCC1c1ccc(F)cc1 (stereo not shown),-6.07
21,O=C(NC1CCCN(Cc2ccc(Cl)cc2)C1)c1ccccc1C(F)(F)F (stereo not shown),7.83
22,Cc1nc([N+](=O)[O-])c(N2CCN(Cc3ccccc3)CC2)n1Cc1ccccc1,-23.3
